{"sequences": {"note": "The chains behind the UniProt entries cited, without tags or fusion partners.", "UniProt Q86WV6": "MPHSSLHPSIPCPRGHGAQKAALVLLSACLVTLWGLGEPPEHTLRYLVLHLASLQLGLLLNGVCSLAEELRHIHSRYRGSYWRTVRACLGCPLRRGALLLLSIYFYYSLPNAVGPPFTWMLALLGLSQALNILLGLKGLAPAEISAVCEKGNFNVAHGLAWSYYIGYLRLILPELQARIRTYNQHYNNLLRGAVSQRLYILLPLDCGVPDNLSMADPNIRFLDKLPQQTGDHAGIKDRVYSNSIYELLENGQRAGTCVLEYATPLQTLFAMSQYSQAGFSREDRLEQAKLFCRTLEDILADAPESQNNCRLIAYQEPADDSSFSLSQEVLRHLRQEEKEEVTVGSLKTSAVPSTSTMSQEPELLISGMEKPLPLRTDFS"}, "source": "paper PMC12375107", "key": {"[1]": {"molecular_target": "tagged STING (human), Q86WV6", "assay": "co-IP; exogenous (transfected) proteins in lysates of HEK293T, HCT116 or HT29 cells; IP lysis buffer 25 mM HEPES, 150 mM NaCl, 1 mM EDTA, 1% NP-40, 10% glycerol, pH 7.4; antibody against Flag, MYC or HA, Protein A/G magnetic beads; western blotting", "conditions": "remark: other sources report otherwise"}, "[2]": {"molecular_target": "T1, Flag-tagged CAD (caspase-activated DNase) (human) (UniProt O76075)", "T1 sequence": "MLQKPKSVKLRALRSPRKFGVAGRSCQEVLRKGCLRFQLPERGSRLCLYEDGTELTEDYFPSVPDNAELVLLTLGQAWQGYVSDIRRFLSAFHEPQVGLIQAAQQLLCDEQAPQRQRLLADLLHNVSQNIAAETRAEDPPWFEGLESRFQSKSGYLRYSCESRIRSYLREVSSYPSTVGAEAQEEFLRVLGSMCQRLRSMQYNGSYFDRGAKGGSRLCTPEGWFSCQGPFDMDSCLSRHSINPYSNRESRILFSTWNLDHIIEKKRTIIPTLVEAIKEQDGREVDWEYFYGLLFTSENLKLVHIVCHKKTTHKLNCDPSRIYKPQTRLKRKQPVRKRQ", "assay": "co-IP; exogenous (transfected) proteins in lysates of HEK293T, HCT116 or HT29 cells; IP lysis buffer 25 mM HEPES, 150 mM NaCl, 1 mM EDTA, 1% NP-40, 10% glycerol, pH 7.4; antibody against Flag, MYC or HA, Protein A/G magnetic beads; western blotting"}, "tagged STING (human)": {"molecular_target": "tagged STING (human) (UniProt Q86WV6)", "assay": "co-IP; exogenous (transfected) proteins in lysates of HEK293T, HCT116 or HT29 cells; IP lysis buffer 25 mM HEPES, 150 mM NaCl, 1 mM EDTA, 1% NP-40, 10% glycerol, pH 7.4; antibody against Flag, MYC or HA, Protein A/G magnetic beads; western blotting"}, "[3]": {"molecular_target": "tagged STING (human), Q86WV6", "assay": "co-IP; HEK293T cells; the pair co-expressed with a third protein (CAD, ICAD or ICAD-NTD), in part at different amounts; western blotting", "conditions": "remark: other sources report otherwise"}, "[4]": {"molecular_target": "endogenous STING (human (endogenous in HCT116 and the indicated human cells)) (UniProt Q86WV6)", "assay": "co-IP; endogenous proteins; antibody against STING or IgG, Protein A/G magnetic beads; IP lysis buffer 25 mM HEPES, 150 mM NaCl, 1 mM EDTA, 1% NP-40, 10% glycerol, pH 7.4; western blotting"}, "[5]": {"molecular_target": "T2, endogenous mouse Sting (mouse (endogenous in MC38)) (UniProt Q3TBT3)", "T2 sequence": "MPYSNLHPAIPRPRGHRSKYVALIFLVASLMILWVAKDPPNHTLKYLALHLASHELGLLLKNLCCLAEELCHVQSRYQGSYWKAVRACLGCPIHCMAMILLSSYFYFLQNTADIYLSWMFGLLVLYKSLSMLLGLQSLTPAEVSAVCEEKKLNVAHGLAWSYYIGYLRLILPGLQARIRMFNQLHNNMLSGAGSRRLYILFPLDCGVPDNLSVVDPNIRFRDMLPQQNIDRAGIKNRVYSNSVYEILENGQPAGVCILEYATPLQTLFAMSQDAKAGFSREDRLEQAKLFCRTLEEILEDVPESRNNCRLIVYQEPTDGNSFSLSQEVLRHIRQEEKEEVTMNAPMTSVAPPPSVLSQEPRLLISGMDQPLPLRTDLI", "assay": "co-IP; mouse proteins in mouse cells (MC38 named for Supplemental Fig. 1B, C); exogenous and endogenous; details not shown"}, "GST-tagged STING (human)": {"molecular_target": "GST-tagged STING (human) (UniProt Q86WV6)", "assay": "pull-down; purified GST-tagged CAD or STING incubated with untagged STING or CAD and GST-conjugated beads at 4 °C overnight; western blotting; both purified"}}, "note": "No constants are given. Whether binding was seen depends on the method and setting. For some of these results: Binding seen in cells or lysates may run through a third protein. Some entries that bind do so weakly or less than the wild type. For some of these results: Where a sequence is shown, tags or fusion partners need not be part of it.", "data": [{"binder": "IRF3 (interferon regulatory factor 3), Q14653 1-427 (protein) MGTPKPRILPWLVSQLDLGQLEGVAWVNKSRTRFRIPWKHGLRQDAQQEDFGIFQAWAEATGAYVPGRDKPDLPTWKRNFRSALNRKEGLRLAEDRSKDPHDPHKIYEFVNSGVGDFSQPDTSPDTNGGGSTSDTQEDILDELLGNMVLAPLPDPGPPSLAVAPEPCPQPLRSPSLDNPTPFPNLGPSENPLKRLLVPGEEWEFEVTAFYRGRQVFQQTISCPEGLRLVGSEVGDRTLPGWPVTLPDPGMSLTDRGVMSYVRHVLSCLGGGLALWRAGQWLWAQRLGHCHTYWAVSEELLPNSGHGPDGEVPKDKEGGVFDLGPFIVDLITFTEGSGRSPRYALWFCVGESWPQDQPWTKRLVMVKVVPTCLRALVEMARVGGASSLENTVDLHISNSHPLSLTSDQYKAYLQDLVEGMDFQGPGES", "values": [{"measurement": "binding", "setting": "[1]", "result": "binds"}]}, {"binder": "ICAD (inhibitor of CAD) (protein, UniProt O00273 1-331) MEVTGDAGVPESGEIRTLKPCLLRRNYSREQHGVAASCLEDLRSKACDILAIDKSLTPVTLVLAEDGTIVDDDDYFLCLPSNTKFVALASNEKWAYNNSDGGTAWISQESFDVDETDSGAGLKWKNVARQLKEDLSSIILLSEEDLQMLVDAPCSDLAQELRQSCATVQRLQHTLQQVLDQREEVRQSKQLLQLYLQALEKEGSLLSKQEESKAAFGEEVDAVDTGISRETSSDVALASHILTALREKQAPELSLSSQDLELVTKEDPKALAVALNWDIKKTETVQEACERELALRLQQTQSLHSLRSISASKASPPGDLQNPKRARQDPT", "values": [{"measurement": "binding", "setting": "[2]", "result": "binds"}, {"measurement": "binding", "setting": "tagged STING (human)", "result": "no binding"}]}, {"binder": "TBK1 (TANK-binding kinase), Q9UHD2 1-729 (enzyme) MQSTSNHLWLLSDILGQGATANVFRGRHKKTGDLFAIKVFNNISFLRPVDVQMREFEVLKKLNHKNIVKLFAIEEETTTRHKVLIMEFCPCGSLYTVLEEPSNAYGLPESEFLIVLRDVVGGMNHLRENGIVHRDIKPGNIMRVIGEDGQSVYKLTDFGAARELEDDEQFVSLYGTEEYLHPDMYERAVLRKDHQKKYGATVDLWSIGVTFYHAATGSLPFRPFEGPRRNKEVMYKIITGKPSGAISGVQKAENGPIDWSGDMPVSCSLSRGLQVLLTPVLANILEADQEKCWGFDQFFAETSDILHRMVIHVFSLQQMTAHKIYIHSYNTATIFHELVYKQTKIISSNQELIYEGRRLVLEPGRLAQHFPKTTEENPIFVVSREPLNTIGLIYEKISLPKVHPRYDLDGDASMAKAITGVVCYACRIASTLLLYQELMRKGIRWLIELIKDDYNETVHKKTEVVITLDFCIRNIEKTVKVYEKLMKINLEAAELGEISDIHTKLLRLSSSQGTIETSLQDIDSRLSPGGSLADAWAHQEGTHPKDRNVEKLQVLLNCMTEIYYQFKKDKAERRLAYNEEQIHKFDKQKLYYHATKAMTHFTDECVKKYEAFLNKSEEWIRKMLHLRKQLLSLTNQCFDIEEEVSKYQEYTNELQETLPQKMFTASSGIKHTMTPIYPSSNTLVEMTLGMKKLKEEMEGVVKELAENNHILERFGSLTMDGGLRNVDCL", "values": [{"measurement": "binding", "setting": "[3]", "result": "binds"}, {"measurement": "binding", "setting": "[1]", "result": "binds"}]}, {"binder": "endogenous CAD (enzyme, UniProt O76075 1-338) MLQKPKSVKLRALRSPRKFGVAGRSCQEVLRKGCLRFQLPERGSRLCLYEDGTELTEDYFPSVPDNAELVLLTLGQAWQGYVSDIRRFLSAFHEPQVGLIQAAQQLLCDEQAPQRQRLLADLLHNVSQNIAAETRAEDPPWFEGLESRFQSKSGYLRYSCESRIRSYLREVSSYPSTVGAEAQEEFLRVLGSMCQRLRSMQYNGSYFDRGAKGGSRLCTPEGWFSCQGPFDMDSCLSRHSINPYSNRESRILFSTWNLDHIIEKKRTIIPTLVEAIKEQDGREVDWEYFYGLLFTSENLKLVHIVCHKKTTHKLNCDPSRIYKPQTRLKRKQPVRKRQ", "values": [{"measurement": "binding", "setting": "[4]", "result": "binds"}]}, {"binder": "endogenous mouse Cad (enzyme, UniProt O54788 1-344) MCAVLRQPKCVKLRALHSACKFGVAARSCQELLRKGCVRFQLPMPGSRLCLYEDGTEVTDDCFPGLPNDAELLLLTAGETWHGYVSDITRFLSVFNEPHAGVIQAARQLLSDEQAPLRQKLLADLLHHVSQNITAETREQDPSWFEGLESRFRNKSGYLRYSCESRIRGYLREVSAYTSMVDEAAQEEYLRVLGSMCQKLKSVQYNGSYFDRGAEASSRLCTPEGWFSCQGPFDLESCLSKHSINPYGNRESRILFSTWNLDHIIEKKRTVVPTLAEAIQDGREVNWEYFYSLLFTAENLKLVHIACHKKTTHKLECDRSRIYRPQTGSRRKQPARKKRPARKR", "values": [{"measurement": "binding", "setting": "[5]", "result": "binds"}]}, {"binder": "untagged CAD (enzyme, UniProt O76075 1-338) MLQKPKSVKLRALRSPRKFGVAGRSCQEVLRKGCLRFQLPERGSRLCLYEDGTELTEDYFPSVPDNAELVLLTLGQAWQGYVSDIRRFLSAFHEPQVGLIQAAQQLLCDEQAPQRQRLLADLLHNVSQNIAAETRAEDPPWFEGLESRFQSKSGYLRYSCESRIRSYLREVSSYPSTVGAEAQEEFLRVLGSMCQRLRSMQYNGSYFDRGAKGGSRLCTPEGWFSCQGPFDMDSCLSRHSINPYSNRESRILFSTWNLDHIIEKKRTIIPTLVEAIKEQDGREVDWEYFYGLLFTSENLKLVHIVCHKKTTHKLNCDPSRIYKPQTRLKRKQPVRKRQ", "values": [{"measurement": "binding", "setting": "GST-tagged STING (human)", "result": "binds"}]}, {"binder": "TBK1 (TANK-binding kinase) (enzyme, UniProt Q9UHD2 1-729) MQSTSNHLWLLSDILGQGATANVFRGRHKKTGDLFAIKVFNNISFLRPVDVQMREFEVLKKLNHKNIVKLFAIEEETTTRHKVLIMEFCPCGSLYTVLEEPSNAYGLPESEFLIVLRDVVGGMNHLRENGIVHRDIKPGNIMRVIGEDGQSVYKLTDFGAARELEDDEQFVSLYGTEEYLHPDMYERAVLRKDHQKKYGATVDLWSIGVTFYHAATGSLPFRPFEGPRRNKEVMYKIITGKPSGAISGVQKAENGPIDWSGDMPVSCSLSRGLQVLLTPVLANILEADQEKCWGFDQFFAETSDILHRMVIHVFSLQQMTAHKIYIHSYNTATIFHELVYKQTKIISSNQELIYEGRRLVLEPGRLAQHFPKTTEENPIFVVSREPLNTIGLIYEKISLPKVHPRYDLDGDASMAKAITGVVCYACRIASTLLLYQELMRKGIRWLIELIKDDYNETVHKKTEVVITLDFCIRNIEKTVKVYEKLMKINLEAAELGEISDIHTKLLRLSSSQGTIETSLQDIDSRLSPGGSLADAWAHQEGTHPKDRNVEKLQVLLNCMTEIYYQFKKDKAERRLAYNEEQIHKFDKQKLYYHATKAMTHFTDECVKKYEAFLNKSEEWIRKMLHLRKQLLSLTNQCFDIEEEVSKYQEYTNELQETLPQKMFTASSGIKHTMTPIYPSSNTLVEMTLGMKKLKEEMEGVVKELAENNHILERFGSLTMDGGLRNVDCL", "values": [{"measurement": "binding", "setting": "[2]", "result": "no binding"}]}, {"binder": "IRF3 (interferon regulatory factor 3) (protein, UniProt Q14653 1-427) MGTPKPRILPWLVSQLDLGQLEGVAWVNKSRTRFRIPWKHGLRQDAQQEDFGIFQAWAEATGAYVPGRDKPDLPTWKRNFRSALNRKEGLRLAEDRSKDPHDPHKIYEFVNSGVGDFSQPDTSPDTNGGGSTSDTQEDILDELLGNMVLAPLPDPGPPSLAVAPEPCPQPLRSPSLDNPTPFPNLGPSENPLKRLLVPGEEWEFEVTAFYRGRQVFQQTISCPEGLRLVGSEVGDRTLPGWPVTLPDPGMSLTDRGVMSYVRHVLSCLGGGLALWRAGQWLWAQRLGHCHTYWAVSEELLPNSGHGPDGEVPKDKEGGVFDLGPFIVDLITFTEGSGRSPRYALWFCVGESWPQDQPWTKRLVMVKVVPTCLRALVEMARVGGASSLENTVDLHISNSHPLSLTSDQYKAYLQDLVEGMDFQGPGES", "values": [{"measurement": "binding", "setting": "[2]", "result": "no binding"}]}]}
